# Structures can show the parent of a compound that is named as a salt. The list shows a part of the results. Single values are uncertain, as repeats are few or missing.
# Test system: KCNR
# Experiment: area under viability curve (10 nM-1 µM), viability relative to solvent or trametinib-only control (AUC (arbitrary, % viability x concentration range)); higher = less growth inhibition (more viable cells)
# Details: 72 h compound exposure (96 h after seeding) h; trametinib co-treatment 0 µM
# Procedure: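 Four neuroblastoma cell lines (KCNR, SKNBE, SJNB8, SKNAS) were seeded in 384-well plates. At 24 h, 1 µM trametinib or DMSO was added, followed by library compounds at 10 nM, 100 nM and 1 µM. Viability was read by MTT at 96 h and normalised to solvent-treated cells (DMSO arm) or to trametinib-only cells (trametinib arm). The area under the 3-point viability curve was computed in GraphPad Prism; units are as given (approx. 100000 = no effect).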
# 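Note: KCNR is a neuroblastoma cell line carrying an ALK mutation, in this DMSO arm without trametinib, viability was normalised to solvent-treated cells.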
row,SMILES,area under viability curve
1,CCOc1cc2ncc(C#N)c(Nc3ccc(OCc4ccccn4)c(Cl)c3)c2cc1NC(=O)/C=C/CN(C)C [Neratinib],94900
2,Cc1cccn2c(=O)c(C=C(C#N)c3nc4ccccc4s3)c(Oc3ccc(F)cc3)nc12,99000
3,CC(=O)Nc1ccc(C(=O)Nc2ccccc2N)cc1 [Tacedinaline],106000
4,CNC(=O)c1ccc(N2C(=S)N(c3ccc(C#N)c(C(F)(F)F)c3)C(=O)C2(C)C)cc1F [Enzalutamide],106000
5,Nc1nc(OCc2ccccc2)c2nc[nH]c2n1 [O6-Benzylguanine],105000
6,CC(C)(C)c1nc(-c2cccc(NS(=O)(=O)c3c(F)cccc3F)c2F)c(-c2ccnc(N)n2)s1 [Dabrafenib],91900
7,CC1(C)CCC(CN2CCN(c3ccc(C(=O)NS(=O)(=O)c4ccc(NCC5CCOCC5)c([N+](=O)[O-])c4)c(Oc4cnc5[nH]ccc5c4)c3)CC2)=C(c2ccc(Cl)cc2)C1 [Venetoclax],40900
8,O=C(CCCN1C(=O)c2cccc3cccc(c23)C1=O)NO [Nullscript],99300
9,O=c1[nH]c(=O)n(C2CCCO2)cc1F (stereo unspecified) [Tegafur],104000
10,C#Cc1cccc(Nc2ncnc3cc(OCCOC)c(OCCOC)cc23)c1 [Erlotinib mesylate],100000
11,COc1cc2c(cc1OC)CN(CCc1ccc(NC(=O)c3cccc4c(=O)c5cccc(OC)c5[nH]c34)cc1)CC2 [Elacridar HCl],101000
12,CCOc1ccn(-c2ccc(F)cc2)c(=O)c1C(=O)Nc1ccc(Oc2ccnc(N)c2Cl)c(F)c1,107000
13,COc1cccc2c1C(=O)c1c(O)c3c(c(O)c1C2=O)C[C@@](O)(C(=O)CO)C[C@@H]3O[C@H]1C[C@H](N)[C@H](O)[C@H](C)O1 [Doxorubicin hydrochloride],9520

# Same assay, conditions: 72 h compound exposure (96 h after seeding) h; trametinib co-treatment 1 µM
row,SMILES,area under viability curve
1,CCOc1cc2ncc(C#N)c(Nc3ccc(OCc4ccccn4)c(Cl)c3)c2cc1NC(=O)/C=C/CN(C)C [Neratinib],87500
2,Cc1cccn2c(=O)c(C=C(C#N)c3nc4ccccc4s3)c(Oc3ccc(F)cc3)nc12,100000
3,CC(=O)Nc1ccc(C(=O)Nc2ccccc2N)cc1 [Tacedinaline],106000
4,CNC(=O)c1ccc(N2C(=S)N(c3ccc(C#N)c(C(F)(F)F)c3)C(=O)C2(C)C)cc1F [Enzalutamide],101000
5,Nc1nc(OCc2ccccc2)c2nc[nH]c2n1 [O6-Benzylguanine],108000
6,CC(C)(C)c1nc(-c2cccc(NS(=O)(=O)c3c(F)cccc3F)c2F)c(-c2ccnc(N)n2)s1 [Dabrafenib],101000
7,CC1(C)CCC(CN2CCN(c3ccc(C(=O)NS(=O)(=O)c4ccc(NCC5CCOCC5)c([N+](=O)[O-])c4)c(Oc4cnc5[nH]ccc5c4)c3)CC2)=C(c2ccc(Cl)cc2)C1 [Venetoclax],9590
8,O=C(CCCN1C(=O)c2cccc3cccc(c23)C1=O)NO [Nullscript],102000
9,O=c1[nH]c(=O)n(C2CCCO2)cc1F (stereo unspecified) [Tegafur],105000
10,C#Cc1cccc(Nc2ncnc3cc(OCCOC)c(OCCOC)cc23)c1 [Erlotinib mesylate],101000
11,COc1cc2c(cc1OC)CN(CCc1ccc(NC(=O)c3cccc4c(=O)c5cccc(OC)c5[nH]c34)cc1)CC2 [Elacridar HCl],105000
12,CCOc1ccn(-c2ccc(F)cc2)c(=O)c1C(=O)Nc1ccc(Oc2ccnc(N)c2Cl)c(F)c1,105000
13,COc1cccc2c1C(=O)c1c(O)c3c(c(O)c1C2=O)C[C@@](O)(C(=O)CO)C[C@@H]3O[C@H]1C[C@H](N)[C@H](O)[C@H](C)O1 [Doxorubicin hydrochloride],5510
